Among the data in the supplement of paper PMC8007513 are growth yield values, retold here.

For this assay, the system named is Trichoderma virens ATCC 9645. As to the kind of experiment: growth yield (OD600) with compound + IPBC relative to untreated control; higher = less growth inhibition. As to conditions: compound concentration: 100 uM, IPBC concentration: 200 ng/ml. The gist of the method: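 Spores of Trichoderma virens ATCC 9645, taken from potato dextrose agar plates grown for 7 days, were suspended at 15,000 spores ml^−1 in potato dextrose broth. In 96-well plates, 100 μl aliquots held library compounds at 100 μM final, either alone or together with a biocide at 200 ng ml^−1, and were grown at 30 °C. A BioTek EL800 read OD600 at 40 h and 72 h. Growth values are given relative to the control lacking both agents and are means of duplicate screens.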

Structures can show the parent of a compound that is named as a salt. ± gives the standard error. Out of some 1,300 compounds screened, about 130 (10%) showed an effect of 50% or more. The list shows a part of the results, in another mix than the full data.

Regarding `CC(=O)N[C@@H](CS)C(=O)O` [Acetylcysteine] + CCCCNC(=O)OCC#CI [3-iodo-2-propynyl butylcarbamate (IPBC)], the growth yield by setting is: (40 h) 108 ± 4.5%; (72 h) 102 ± 1.7%.

On to `CC(C)N(CCC(C(N)=O)(c1ccccc1)c1ccccn1)C(C)C` (stereo not drawn) [Disopyramide] + CCCCNC(=O)OCC#CI [3-iodo-2-propynyl butylcarbamate (IPBC)], for which the growth yield was 90.2 ± 9.8% (40 h) and 96.1 ± 6.5% (72 h).

Regarding `CC(=O)O[C@H]1C[C@@]2(C)[C@@H](C[C@@H](O)[C@H]3[C@@]4(C)CC[C@@H](O)[C@@H](C)[C@@H]4CC[C@@]32C)/C1=C(\CCC=C(C)C)C(=O)O` [Fusidic acid sodium salt] + CCCCNC(=O)OCC#CI [3-iodo-2-propynyl butylcarbamate (IPBC)], the growth yield is, setting by setting: (40 h) 109.3 ± 0.64%; (72 h) 117 ± 1.5%.

Regarding `C[C@H](N)[C@H](O)c1ccc(O)c(O)c1` [Levonordefrin] + CCCCNC(=O)OCC#CI [3-iodo-2-propynyl butylcarbamate (IPBC)], the growth yield runs as follows: (40 h) 106.7 ± 0.32%; (72 h) 99.5 ± 1.1%.

In the case of `CCN(CC)CCOC(=O)c1ccc(N)cc1` [Procaine hydrochloride] + CCCCNC(=O)OCC#CI [3-iodo-2-propynyl butylcarbamate (IPBC)], the growth yield amounted to 99.59 ± 0.16% (40 h) and 99 ± 0.21% (72 h).

In the case of `Cc1c(C)c2c(c(C)c1O)CCC(C)(C(=O)O)O2` (stereo not drawn) [Trolox] + CCCCNC(=O)OCC#CI [3-iodo-2-propynyl butylcarbamate (IPBC)], the growth yield reads like this: (40 h) 82.8 ± 1.1%; (72 h) 85.27 ± 0.32%.

In the case of `C[C@@H](O)[C@H]1C(=O)N2C(C(=O)O)=C(S[C@@H]3CN[C@H](C(=O)N(C)C)C3)[C@H](C)[C@H]12` [Meropenem] + CCCCNC(=O)OCC#CI [3-iodo-2-propynyl butylcarbamate (IPBC)], the growth yield turned out to be 94.2 ± 1.8% (40 h) and 94.4 ± 1.5% (72 h).

As for `CN1[C@@H]2CC[C@H]1C[C@@H](OC(=O)[C@H](CO)c1ccccc1)C2` [Hyoscyamine (L)] + CCCCNC(=O)OCC#CI [3-iodo-2-propynyl butylcarbamate (IPBC)], the growth yield was 97.1 ± 5.9% (40 h) and 100 ± 4.5% (72 h).

For the molecule `CC(=O)O[C@H]1C[C@@H]2CC[C@@H]3[C@H](CC[C@@]4(C)[C@H]3C[C@H]([N+]3(C)CCCCC3)[C@@H]4OC(C)=O)[C@@]2(C)C[C@@H]1N1CCCCC1` [Vecuronium bromide] + CCCCNC(=O)OCC#CI [3-iodo-2-propynyl butylcarbamate (IPBC)], the growth yield came out at 83.1 ± 1.1% (40 h) and 88.2 ± 0.32% (72 h).

`C[C@]12C=CC(=O)C=C1CC[C@H]1[C@@H]3C[C@@H](O)[C@](O)(C(=O)CO)[C@@]3(C)C[C@H](O)[C@@]12F` [Triamcinolone] + CCCCNC(=O)OCC#CI [3-iodo-2-propynyl butylcarbamate (IPBC)]: the growth yield by setting is: (40 h) 98.3 ± 3%; (72 h) 97.5 ± 1.9%.

Take `CCN(CC)C(=O)/C(C#N)=C/c1cc(O)c(O)c([N+](=O)[O-])c1` [Entacapone] + CCCCNC(=O)OCC#CI [3-iodo-2-propynyl butylcarbamate (IPBC)]: the growth yield is, setting by setting: (40 h) 88 ± 0.64%; (72 h) 80.4 ± 1.4%.

On to `CNCCCC12CCC(c3ccccc31)c1ccccc12` [Maprotiline hydrochloride] + CCCCNC(=O)OCC#CI [3-iodo-2-propynyl butylcarbamate (IPBC)], for which the growth yield (40 h) was 65.92 ± 0.48% and the growth yield (72 h) was 89.88 ± 0.32%.

With `C[C@@H]1C[C@H]2[C@@H]3C[C@H](F)C4=CC(=O)C=C[C@]4(C)[C@@]3(Cl)[C@@H](O)C[C@]2(C)[C@H]1C(=O)COC(=O)C(C)(C)C` [Clocortolone pivalate] + CCCCNC(=O)OCC#CI [3-iodo-2-propynyl butylcarbamate (IPBC)], the growth yield by setting is: (40 h) 101%; (72 h) 93 ± 8.1%.

For `NS(=O)(=O)c1cc(Cl)c(Cl)c(S(N)(=O)=O)c1` [Dichlorphenamide] + CCCCNC(=O)OCC#CI [3-iodo-2-propynyl butylcarbamate (IPBC)], the growth yield is 95.3 ± 5.1% (40 h) and 98.17 ± 0.21% (72 h).

Turning to `CCCCCNC(=N)N/N=C/c1c[nH]c2ccc(OC)cc12` [Tegaserod maleate] + CCCCNC(=O)OCC#CI [3-iodo-2-propynyl butylcarbamate (IPBC)], the growth yield came to 5.4% (40 h) and 5.24 ± 0.21% (72 h).

As to `CN(C)CCCSC(=N)N` [Dimaprit dihydrochloride] + CCCCNC(=O)OCC#CI [3-iodo-2-propynyl butylcarbamate (IPBC)], the growth yield is, setting by setting: (40 h) 93.9 ± 6.5%; (72 h) 95.8 ± 4.3%.

Take `Cc1onc(-c2c(F)cccc2Cl)c1C(=O)N[C@@H]1C(=O)N2[C@@H]1SC(C)(C)[C@@H]2C(=O)O` [Flucloxacillin sodium] + CCCCNC(=O)OCC#CI [3-iodo-2-propynyl butylcarbamate (IPBC)]: the growth yield is, setting by setting: (40 h) 97.4 ± 12%; (72 h) 96 ± 8.7%.

Turning to `O=C(NCCN1CCOCC1)c1ccc(Cl)cc1` [Moclobemide] + CCCCNC(=O)OCC#CI [3-iodo-2-propynyl butylcarbamate (IPBC)], the growth yield was determined as 81.6 ± 4.8% (40 h) and 89.7 ± 2% (72 h).

In the case of `CC(=O)CCCCn1c(=O)c2c(ncn2C)n(C)c1=O` [Pentoxifylline] + CCCCNC(=O)OCC#CI [3-iodo-2-propynyl butylcarbamate (IPBC)], the growth yield reads like this: (40 h) 85.3 ± 1.1%; (72 h) 91.87 ± 0.63%.

Take `CN1C(=O)OC(C)(C)C1=O` [Trimethadione] + CCCCNC(=O)OCC#CI [3-iodo-2-propynyl butylcarbamate (IPBC)]: the growth yield reads like this: (40 h) 92.4 ± 1.6%; (72 h) 93.3 ± 1.1%.

As for `CN(C/C=C/c1ccccc1)Cc1cccc2ccccc12` [Naftifine hydrochloride] + CCCCNC(=O)OCC#CI [3-iodo-2-propynyl butylcarbamate (IPBC)], the growth yield amounted to 13.2 ± 3% (40 h) and 50 ± 2.2% (72 h).

Consider `CN[C@@H]1C[C@@H](c2ccc(Cl)c(Cl)c2)c2ccccc21` [Indatraline hydrochloride] + CCCCNC(=O)OCC#CI [3-iodo-2-propynyl butylcarbamate (IPBC)], for which the growth yield (40 h) was found to be 29.4 ± 4.9%.

Regarding `CC(C)NC[C@H](O)COc1cccc2ccccc12` [(S)-propranolol hydrochloride] + CCCCNC(=O)OCC#CI [3-iodo-2-propynyl butylcarbamate (IPBC)], the growth yield reads like this: (40 h) 82.92 ± 0.64%; (72 h) 90.9 ± 2.2%.

As for `CC(C(=O)O)c1cccc(C(=O)c2ccccc2)c1` (stereo not drawn) [Ketoprofen] + CCCCNC(=O)OCC#CI [3-iodo-2-propynyl butylcarbamate (IPBC)], the growth yield is, setting by setting: (40 h) 74 ± 0.95%; (72 h) 86.4 ± 1.5%.

In the case of `CCCC1O[C@@H]2C[C@H]3[C@@H]4CCC5=CC(=O)C=C[C@]5(C)[C@H]4[C@@H](O)C[C@]3(C)[C@]2(C(=O)CO)O1` (stereo partly drawn) [Budesonide] + CCCCNC(=O)OCC#CI [3-iodo-2-propynyl butylcarbamate (IPBC)], the growth yield reads like this: (40 h) 82.44 ± 0.79%; (72 h) 89.4 ± 2.3%.

Consider `Nc1nc2c(ncn2COCCO)c(=O)[nH]1` [Acyclovir] + CCCCNC(=O)OCC#CI [3-iodo-2-propynyl butylcarbamate (IPBC)], for which the growth yield runs as follows: (40 h) 100 ± 3.5%; (72 h) 101 ± 3.5%.

`CCCCCN(CCCCC)C(=O)C(CCC(=O)O)NC(=O)c1ccc(Cl)c(Cl)c1` (stereo not drawn) [Lorglumide sodium salt] + CCCCNC(=O)OCC#CI [3-iodo-2-propynyl butylcarbamate (IPBC)]: the growth yield is, setting by setting: (40 h) 85.5 ± 4.1%; (72 h) 85.5 ± 6.4%.

`CC(C)(C)NC(=O)[C@@H]1C[C@@H]2CCCC[C@@H]2CN1C[C@@H](O)[C@H](Cc1ccccc1)NC(=O)[C@H](CC(N)=O)NC(=O)c1ccc2ccccc2n1` [Saquinavir mesylate] + CCCCNC(=O)OCC#CI [3-iodo-2-propynyl butylcarbamate (IPBC)]: the growth yield by setting is: (40 h) 61 ± 1.6%; (72 h) 99.74 ± 0.94%.

With `CC(=O)OCC(=O)[C@@]1(O)[C@H](C)C[C@H]2[C@@H]3CCC4=CC(=O)C=C[C@]4(C)[C@@]3(F)[C@@H](O)C[C@@]21C` [Dexamethasone acetate] + CCCCNC(=O)OCC#CI [3-iodo-2-propynyl butylcarbamate (IPBC)], the growth yield runs as follows: (40 h) 96.3 ± 5.7%; (72 h) 97.6 ± 6.2%.

With `COc1ccc(C(=O)c2ccccc2)c(O)c1` [Oxybenzone] + CCCCNC(=O)OCC#CI [3-iodo-2-propynyl butylcarbamate (IPBC)], the growth yield (40 h) is 45.3 ± 4.9%.

`CCOC(=O)C1=C(C)NC(C)=C(C(=O)OCC)C1c1ccccc1/C=C/C(=O)OC(C)(C)C` [Lacidipine] + CCCCNC(=O)OCC#CI [3-iodo-2-propynyl butylcarbamate (IPBC)]: the growth yield (40 h) was determined as 92.4 ± 0.95% and the growth yield (72 h) stood at 91.98 ± 0.32%.

As to `CCOc1cc(CC(=O)N[C@@H](CC(C)C)c2ccccc2N2CCCCC2)ccc1C(=O)O` [Repaglinide] + CCCCNC(=O)OCC#CI [3-iodo-2-propynyl butylcarbamate (IPBC)], the growth yield (40 h) is 104 ± 7.3% and the growth yield (72 h) is 104 ± 4.8%.

With `C#C[C@]1(O)CC[C@H]2[C@@H]3CCc4cc(O)ccc4[C@H]3CC[C@@]21C` [Ethinylestradiol] + CCCCNC(=O)OCC#CI [3-iodo-2-propynyl butylcarbamate (IPBC)], the growth yield reads like this: (40 h) 70.5 ± 1.3%; (72 h) 80.97 ± 0.21%.

In the case of `CCCCN(CCCC)CCC(O)c1cc2c(Cl)cc(Cl)cc2c2cc(C(F)(F)F)ccc12` (stereo not drawn) [Halofantrine hydrochloride] + CCCCNC(=O)OCC#CI [3-iodo-2-propynyl butylcarbamate (IPBC)], the growth yield reads like this: (40 h) 13.8 ± 0.16%; (72 h) 7.66 ± 1.1%.

For the molecule `Nc1c2c(nc3ccccc13)CCCC2` [Tacrine hydrochloride] + CCCCNC(=O)OCC#CI [3-iodo-2-propynyl butylcarbamate (IPBC)], the growth yield is, setting by setting: (40 h) 100.5 ± 0.16%; (72 h) 100 ± 0.42%.

Take `CCN(CC)C(=S)SSC(=S)N(CC)CC` [Disulfiram] + CCCCNC(=O)OCC#CI [3-iodo-2-propynyl butylcarbamate (IPBC)]: the growth yield (40 h) came to 33.7 ± 3.8%.

As for `COc1ccc(CN2CCNCC2)c(OC)c1OC` [Trimetazidine dihydrochloride] + CCCCNC(=O)OCC#CI [3-iodo-2-propynyl butylcarbamate (IPBC)], the growth yield (40 h) worked out at 85 ± 2.1% and the growth yield (72 h) was determined as 91.87 ± 0.42%.

In the case of `CC[C@H]1OC(=O)C[C@@H](O)[C@H](C)[C@@H](O[C@@H]2O[C@H](C)[C@@H](O[C@H]3C[C@@](C)(O)[C@@H](O)[C@H](C)O3)[C@H](N(C)C)[C@H]2O)[C@@H](CC=O)C[C@@H](C)C(=O)/C=C/C(C)=C/[C@@H]1CO[C@@H]1O[C@H](C)[C@@H](O)[C@@H](OC)[C@H]1OC` [Tylosin] + CCCCNC(=O)OCC#CI [3-iodo-2-propynyl butylcarbamate (IPBC)], the growth yield by setting is: (40 h) 95.3 ± 7.9%; (72 h) 95.1 ± 3%.
